According to PMC4336329 (PLoS ONE, 2015):
In all, about 310,000 compounds went through this assay and about 14,000 (4.5%) showed an effect of 50% or more. The effect is printed as a negative number. This is one part of the list.

Molecular target: human ether-à-go-go-related gene (hERG) potassium channel (human, UniProt Q12809)
Experiment: primary screen, population patch clamp on CHO cells stably expressing hERG
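Note: peak tail current of the secondary pulse compared with the same well before compound.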

human ether-à-go-go-related gene (hERG) potassium channel, sequence (Q12809 whole entry, looked up): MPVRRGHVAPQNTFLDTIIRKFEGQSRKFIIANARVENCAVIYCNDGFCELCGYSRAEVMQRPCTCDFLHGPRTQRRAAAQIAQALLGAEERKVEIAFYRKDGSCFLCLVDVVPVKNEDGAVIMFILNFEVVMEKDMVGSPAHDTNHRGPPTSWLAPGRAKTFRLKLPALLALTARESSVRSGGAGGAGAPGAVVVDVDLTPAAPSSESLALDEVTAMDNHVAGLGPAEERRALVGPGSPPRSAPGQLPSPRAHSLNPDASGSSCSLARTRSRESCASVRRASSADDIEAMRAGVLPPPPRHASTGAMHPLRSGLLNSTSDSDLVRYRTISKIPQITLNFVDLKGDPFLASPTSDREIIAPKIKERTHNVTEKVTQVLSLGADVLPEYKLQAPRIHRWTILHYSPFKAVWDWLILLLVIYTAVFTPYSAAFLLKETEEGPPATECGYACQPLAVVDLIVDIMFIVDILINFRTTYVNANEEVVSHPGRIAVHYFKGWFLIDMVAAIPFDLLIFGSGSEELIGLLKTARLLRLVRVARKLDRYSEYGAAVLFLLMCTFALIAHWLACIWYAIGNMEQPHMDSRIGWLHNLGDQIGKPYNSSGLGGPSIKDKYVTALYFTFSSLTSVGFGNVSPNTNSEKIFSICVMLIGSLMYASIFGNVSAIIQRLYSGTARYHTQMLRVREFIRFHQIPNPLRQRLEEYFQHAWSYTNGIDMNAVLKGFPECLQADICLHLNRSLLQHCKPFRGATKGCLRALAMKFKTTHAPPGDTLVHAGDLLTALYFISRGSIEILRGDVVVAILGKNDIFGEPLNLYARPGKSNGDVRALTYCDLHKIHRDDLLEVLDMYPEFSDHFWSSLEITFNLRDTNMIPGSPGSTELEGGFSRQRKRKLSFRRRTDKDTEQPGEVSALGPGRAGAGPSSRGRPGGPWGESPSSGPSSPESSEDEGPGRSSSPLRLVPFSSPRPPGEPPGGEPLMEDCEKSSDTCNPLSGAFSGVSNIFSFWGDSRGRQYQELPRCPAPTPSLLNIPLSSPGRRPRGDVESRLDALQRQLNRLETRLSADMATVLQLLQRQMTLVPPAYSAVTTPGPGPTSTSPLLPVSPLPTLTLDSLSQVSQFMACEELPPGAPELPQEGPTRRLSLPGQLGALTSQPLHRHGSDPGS

SMILES	hERG current change (%, negative = inhibition) at 10uM [%]
Cc1nn(C)c(Cl)c1C(=O)NCC(=O)NCc1ccccc1	5.32
Cc1noc(C)c1COc1cccc(C(=O)OC(C)C(=O)Nc2c(C)n(C)n(-c3ccccc3)c2=O)c1 (stereo not shown)	4.8
Cc1ccccc1OCCNC(=O)CNC(=O)c1ccccc1O	-32.8
O=C(Nc1nc(-c2ccccc2)nc2ccccc12)c1ccc(F)cc1	15.3
C=CCNC(=O)c1onc(CSc2ccc(F)cc2)c1C(=O)NCCOC	-43
Cc1[nH]c2ccccc2c1/C=N/NC(=O)c1cc(-c2ccncc2)nc2ccccc12	6.7
CC1CN(C(=O)c2ccc(COc3ccc(C(C)C)cc3)o2)CC(C)O1 (stereo not shown)	-25
COc1cccc(NC(=O)Nc2ccc3nc(C)c(C)nc3c2)c1	-0.741
CC(C)(C)OC(=O)NCC1CCC(C(=O)NC[C@H](CC(=O)O)c2ccc(Cl)cc2)CC1 (stereo partly shown)	21.1
Cc1onc(-c2c(F)cccc2Cl)c1C(=O)N=C(N)N1CC(C)OC(C)C1 (stereo not shown)	2
COc1ccc(CC(=O)NCC2CCCN(Cc3ccccc3OC)C2)cc1 (stereo not shown)	10.5
COc1ccc([C@H](C)NC[C@H](O)c2ccc(O)c(NC=O)c2)cc1.O=C(O)/C=C/C(=O)O	-0.554
CCN1C(=O)[C@@H]2[C@@H](c3ccc(SC4CCCCC4)cc3)N3CCCC[C@@]3(C(=O)OC)[C@@H]2C1=O.O=C(O)C(F)(F)F	0.86
COc1ccc(C(=O)OCC(=O)NC2CC2)cc1S(=O)(=O)Nc1ccc(C)cc1	7.75
CN(C)S(=O)(=O)c1ccc(NC(=O)N2CCN(c3ccccc3)CC2)cc1	13.3
Cn1c(N)c(C(=O)COC(=O)C2(c3cccc(F)c3)CCCC2)c(=O)n(C)c1=O	-12.4
Brc1ccc(Nc2nc(-c3cccnc3)cs2)cc1	19.9
CSc1ccc(N2CCN(CCCNC(=O)Nc3ccccc3F)CC2)cc1	-49.1
Cc1ccc(NC(=O)c2cc(N3C(=O)CCC3=O)ccc2N2CCCCC2)cc1	-15.9
Cc1c(C=O)c2ccccc2n1Cc1ccc([N+](=O)[O-])cc1	-78.1
COc1cc2oc(=O)ccc2cc1[C@H](O)[C@@H](O)C(C)(C)O	10.1
Cl.O=c1cn[nH]c2ccccc12	-5.98

SMILES	hERG current change (%, negative = inhibition) at 10uM [%]
C=CCOc1ccccc1/C=N/n1nnnc1N	-4.6
Cn1nc(C(F)(F)F)c(CN2CC(C)(C)C2=O)c1N1CCOCC1	20.7
CCOc1ccc(CNc2ccc(N3CCOCC3)c(C(=O)O)c2)cc1	-0.488
O=C(NCc1cccs1)C(=O)NCC1OCCCN1S(=O)(=O)c1cccs1 (stereo not shown)	-15.3
CC(C)C(=O)c1cn(CC(=O)NCc2ccc3c(c2)OCO3)c2ccccc12	16
CCc1ccccc1NC(=O)CNC1CCCCC1.[O-][Cl+3]([O-])([O-])O	8.4
CC(COC(=O)c1ccccc1)(COC(=O)c1ccccc1)/[N+]([O-])=C/c1ccccc1	4.41
CCOC(=O)c1cnn(-c2ccc(Cl)cc2)c1C1CCN(C(=O)OC(C)(C)C)CC1	-1.14
O=C1C2CCCN2C(=O)N1CCCCN1CCN(c2ccc(F)cc2)CC1 (stereo not shown)	-43.2
O=C(C1CCCCC1)N1CCN(S(=O)(=O)c2cccc([N+](=O)[O-])c2)CC1	-13.1
Nc1ccc(C(=O)N2CCN(S(=O)(=O)c3ccc(Cl)cc3)CC2)cc1[N+](=O)[O-]	-46.1
CC(C)c1nc2sc3c(NCc4ccco4)ncnc3c2c2c1COC(C)(C)C2	-1.04
Clc1ccccc1-c1nc(-c2cccnc2)no1	7.94
Fc1ccc(NC(=S)N2CCc3ccccc32)cc1	10.6
CCCc1nnc(SCC(=O)Nc2cc(C)on2)n1CCOC	16.2
O=C1C2=C(c3ccccc31)[N+](=O)C1CCCCC1N2[O-] (stereo not shown)	-23.8
O=C1c2ccccc2C(=O)N1CCCn1nnc(-c2ccc(N3CCOCC3)cc2)n1	-4.13
COc1ccc2[nH]c3c(=O)n(Cc4ccc(C(=O)N5CCCCCC5)cc4)c(=S)[nH]c3c2c1	24.5
Cc1nn(Cc2ccccc2)c(=O)n1N(C)c1ncc(C(F)(F)F)cc1Cl	-7.74
Cc1cc(C)n(-c2cc(Oc3ccccc3)ncn2)n1	0.911
Cc1cc(C(=O)Nc2ccc3[nH]ccc3c2)no1	6.46
